Measurements from PMC4242493.
The list shows a part of the results. The list includes weakly bound sequences.

target: MaxL homodimer (UniProt P61244); test: universal protein-binding microarray (PBM); conditions: PBS-based mixture, 10 nM His-tagged protein dimer, 2% milk, 200 ng/uL BSA, 50 ng/uL salmon testes DNA, 0.02% TX-100; detection with Alexa 488 anti-His …; high values mean tight binding; most listed sequences are background and not binding sites; double strand, one strand shown
UniProt P61244, sequence (P61244 whole entry): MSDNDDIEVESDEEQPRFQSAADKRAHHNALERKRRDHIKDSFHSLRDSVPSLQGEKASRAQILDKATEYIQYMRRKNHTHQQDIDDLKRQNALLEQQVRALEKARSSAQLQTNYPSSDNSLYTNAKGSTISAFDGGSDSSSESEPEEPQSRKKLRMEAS

Sequence	binding signal (normalized occupancy)
CTAACTAG	0.07
TATAGCGA	0.0803
ACTGATGC	0.077
AGTTCGCA	0.0724
ACTAAGGA	0.0759
TATCCAAA	0.0792
ATTGGAGG	0.0738
AGCCGGAG	0.0658
CGCTCTTC	0.0661
GGCACACA	0.0798
CTATAGTC	0.0784
CCGAGCAC	0.0759
TTAGAAAA	0.0757
ACAACCAA	0.0757
CCCCACGG	0.0843
ATTTGTTC	0.0761
AACAGAAT	0.0706
AAACTGTC	0.0741
GACCTGAC	0.0746
GCTACTGA	0.0661
GTCGCGCA	0.0729
ATTTATGA	0.082
TGAAGAAA	0.0695
CGCCTGTC	0.0713
AGGCTCTG	0.0739

Sequence	binding signal (normalized occupancy)
CGCCGTAA	0.0692
ATGTGTTG	0.0905
CATCGTTA	0.0799
ATGCTAAT	0.0804
CTGAGAAC	0.0768
ACGATACA	0.0848
CCATTACA	0.0823
ACATCCCA	0.0755
GATGAACC	0.0746
GCCAGTCA	0.0708
CACCTGTC	0.0839
CGCTATGC	0.0734
GAGGGCCC	0.0675
AGTCTGTA	0.0713
GCTACGCA	0.0704
GAGTTCTA	0.0745
CCATGTTA	0.0847
GCTCCTCA	0.0753
ACTGTACT	0.0787
ACTCACAC	0.087
CGAATGAG	0.0743
AGGGTGGA	0.074
GAACGAAA	0.0745
TACATCCA	0.0837
ATGTGGCG	0.0879

Sequence	binding signal (normalized occupancy)
GTACTGCA	0.0772
CAAGAGGC	0.0687
AAGATCGA	0.0761
TCACAAGA	0.0753
CGCTAACG	0.075
ATCCAACG	0.0771
CGTTTGCA	0.0714
CGATAACC	0.0756
GAAGGAGC	0.0701
CCTCTCAC	0.0781
CATTTCCA	0.0828
AGGAACGG	0.0715
TGATGTAA	0.083
TAGGACTA	0.0732
CTGACTAC	0.0771
AGGCGGAG	0.067
CTTTGCCA	0.0734
CGCTTCCG	0.0681
AGCCGTCG	0.0694
GTGCCGAA	0.0732
AAGAGAGG	0.0745
AATCTCGT	0.0762
ACTCGGGG	0.076
CCCATGTA	0.0872
ACCCTAAG	0.0771

Sequence	binding signal (normalized occupancy)
GTATACAA	0.0771
GCTGCGCA	0.0685
ACAGGACG	0.0725
ATGTCTCA	0.0865
AGCGCGCT	0.0814
CCCACCAG	0.0817
GGATTTGA	0.0761
CGCACCAA	0.0722
AACAGCAT	0.087
GACGATAA	0.0782
AAATCAGG	0.0754
CGACCAGA	0.0721
AGTCCGGA	0.0679
CGTGCTCC	0.085
CCGCGGTA	0.0727
AGCATCAT	0.0919
ACTTCTCC	0.0715
AACGGGGC	0.0728
CGGCTGCC	0.0673
AGGGCGAG	0.0742
AGACTGAT	0.0744
CGAGCCGC	0.0665
CAAGGACA	0.0835
GCTCAAAA	0.0658
AAACGAAT	0.0754

Sequence	binding signal (normalized occupancy)
GTAGCGAC	0.0722
AGGGCGCC	0.0702
TCTTGCAA	0.0693
GCCGCACC	0.0786
AACACCAG	0.0711
TAAACGGA	0.068
CGTAGACC	0.0718
AGTCTGCC	0.0678
CAACACCG	0.0759
CCCTGTTC	0.0765
AACAGAAG	0.0776
CAGAGCAG	0.0723
CCCATTCC	0.0783
AATGAGCT	0.0741
GCCGAGCA	0.0695
GCCTAGGA	0.0702
GCAGAAGC	0.0732
AAGCCCGA	0.0696
CATGTACC	0.0843
AACGTGGC	0.107
CGAACCCG	0.0667
AATCTGAC	0.0748
CTAAGAGA	0.0732
AGTCAGCG	0.0777
CCTATCAC	0.0808

Sequence	binding signal (normalized occupancy)
GATCGCTA	0.0739
GCTAAGGA	0.0676
CATGGTAG	0.0879
GGGGTCGA	0.0803
GACGGCAC	0.0699
CTCTGAAA	0.0744
CGGCACAG	0.0692
AATGAATT	0.0743
ACGAACGG	0.0725
ATTCCTGC	0.0766
CAATACAA	0.079
AGCTAAGA	0.0736
ATGATATC	0.0909
CCAGTTCG	0.0685
ATTGCTCC	0.0675
ACGCTTTG	0.0776
ACATCCAG	0.0809
AACAGGAA	0.0715
CGGCTCAA	0.0688
GATCCCAC	0.0777
ACACACAA	0.0849
ACTCAGTG	0.071
CGCAGCAG	0.0666
ATATACTG	0.0765
CAGTTCTC	0.0708

Sequence	binding signal (normalized occupancy)
AAGGCAAG	0.0752
GTCCTAAA	0.0734
AAGTTAAG	0.0726
AATCATTA	0.0812
AACCTATT	0.0776
ATTGTCCG	0.0741
AAGGCAGG	0.0753
ACGCTGTA	0.0841
CTTTGTGA	0.071
ATCTTCAA	0.072
ATGAAACA	0.0788
ACTATTCT	0.0793
CGACAACC	0.0741
CGGCTACG	0.0653
GACCCGAA	0.0678
CTCAATTC	0.0775
TCAATCCA	0.077
ATTCAGAC	0.0739
ATTCGGGC	0.0757
CTTTTCGA	0.0725
GGGGCTTA	0.0728
CTTCATAC	0.0828
GCACAGCC	0.0786
CATCGGAG	0.0734
CTTCGAGA	0.068

Sequence	binding signal (normalized occupancy)
GATACTGC	0.0758
AGCGCACA	0.0739
AACCACGA	0.0902
ACCTGTTA	0.0847
AGGAGGTC	0.0719
CTACCAAG	0.0704
GTCATATA	0.0836
ATGAGTCC	0.0802
GACCCTAC	0.077
AGGCCATG	0.0833
ATTTTCTG	0.0707
CGTCCGAC	0.0735
GGCGTGCA	0.0978
GTTGGACA	0.073
AATGTTCC	0.0722
AGATATTA	0.0734
ATCAGGGG	0.086
GGTAACAA	0.0798
CAGGAGGA	0.0769
AACATGAT	0.0933
GCCCCACC	0.0778
AGACTTCG	0.0745
ACCTTCGA	0.0696
TCCGAGAA	0.0692
ATATTCTG	0.0793

Sequence	binding signal (normalized occupancy)
CCATCTCG	0.0738
CTGGAGTA	0.0757
CTGCCCGC	0.0693
GCGCGTTA	0.0795
AACATAAA	0.0831
AGAGGCGC	0.0679
AAAGTGGT	0.0721
GAATCACA	0.0791
CCAATTAC	0.0792
TCGACTAA	0.0729
AGTTCGTG	0.0811
AAACTAGA	0.073
AGACAGAT	0.0759
TACCCAGA	0.0745
ACCAACCT	0.0724
CAAAGAAC	0.0729
CTTACTAA	0.0721
CGATGAAC	0.0763
GTGAAGGA	0.0905
